# Test results reported in article PMC4336329 (PLoS ONE, 2015).
# About 2,200 (0.71%) of roughly 310,000 compounds showed an effect of 50% or more. The effect is printed as a negative number. The list shows a part of the results.
# Molecular target: human ether-à-go-go-related gene (hERG) potassium channel (human, UniProt Q12809)
# Assay: primary screen, population patch clamp on CHO cells stably expressing hERG
# human ether-à-go-go-related gene (hERG) potassium channel, sequence (Q12809 whole entry, looked up): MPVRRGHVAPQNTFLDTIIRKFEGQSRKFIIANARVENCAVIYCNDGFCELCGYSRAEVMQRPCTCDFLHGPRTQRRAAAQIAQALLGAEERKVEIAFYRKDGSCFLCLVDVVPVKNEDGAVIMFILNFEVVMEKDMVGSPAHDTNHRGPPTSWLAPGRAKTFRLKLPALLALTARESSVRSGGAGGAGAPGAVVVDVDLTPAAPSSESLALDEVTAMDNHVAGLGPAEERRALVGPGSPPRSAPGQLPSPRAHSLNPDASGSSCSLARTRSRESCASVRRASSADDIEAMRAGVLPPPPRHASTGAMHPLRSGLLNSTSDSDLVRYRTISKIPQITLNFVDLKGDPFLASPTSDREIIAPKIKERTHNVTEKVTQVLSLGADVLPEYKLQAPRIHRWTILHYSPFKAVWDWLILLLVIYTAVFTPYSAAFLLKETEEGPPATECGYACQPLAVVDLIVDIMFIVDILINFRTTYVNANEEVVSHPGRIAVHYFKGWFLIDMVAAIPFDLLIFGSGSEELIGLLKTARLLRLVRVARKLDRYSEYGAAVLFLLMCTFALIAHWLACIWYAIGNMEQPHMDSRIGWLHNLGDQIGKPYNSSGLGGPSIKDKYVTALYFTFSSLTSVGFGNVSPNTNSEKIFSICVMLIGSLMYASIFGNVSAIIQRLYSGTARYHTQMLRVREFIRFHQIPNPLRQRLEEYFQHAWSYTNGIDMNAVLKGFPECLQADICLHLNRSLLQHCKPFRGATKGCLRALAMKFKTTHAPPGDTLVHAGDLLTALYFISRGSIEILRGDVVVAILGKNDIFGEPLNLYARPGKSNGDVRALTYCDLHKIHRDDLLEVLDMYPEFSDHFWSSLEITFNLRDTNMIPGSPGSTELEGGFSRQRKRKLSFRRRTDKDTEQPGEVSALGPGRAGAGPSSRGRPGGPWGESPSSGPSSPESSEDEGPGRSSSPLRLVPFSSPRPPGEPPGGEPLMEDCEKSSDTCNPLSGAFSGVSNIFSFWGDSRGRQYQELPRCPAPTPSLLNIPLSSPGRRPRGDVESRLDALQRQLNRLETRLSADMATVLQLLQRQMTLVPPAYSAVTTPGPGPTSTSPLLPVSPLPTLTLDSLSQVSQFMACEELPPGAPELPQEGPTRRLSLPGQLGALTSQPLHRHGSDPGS
row,SMILES,"hERG current change (%, negative = inhibition) at 1uM"
1,Cc1nnc(SCC(=O)N2c3ccccc3CC2C)s1 (stereo not drawn),19.9%
2,CCOc1c(O)ccc(/C=C2\SC(=S)NC2=O)c1[N+](=O)[O-],9.8%
3,COc1ccccc1CN(C)CC(=O)Nc1ccccc1-c1ccccc1,8.01%
4,COc1cc2ncc(C(=O)c3ccccc3)c(N3CCN(Cc4ccccc4)CC3)c2cc1OC,8.52%
5,CCOc1ccc(N(CC)C(=O)CCS(=O)(=O)c2cccc3nonc23)cc1,7.63%
6,CCOC(=O)c1c(NC(=O)c2c(N)n(CCCOC)c3nc4ccccc4nc23)sc2c1CCCC2,8.9%
7,CN1CCN(C(=O)C23CC4CC(C2)CC(c2ccccc2)(C4)C3)CC1.Cl,8.4%
8,CCC(=O)Nc1ccc(NC(=S)NC(=O)/C=C/c2ccco2)cc1,6%
9,O=C(Nc1cccnc1)C1CCN(S(=O)(=O)c2cccc3nonc23)CC1,9.03%
10,Cc1[nH]nc2c1C(c1ccsc1C)C(C#N)=C(N)O2 (stereo not drawn),8.46%
11,CC(C)NS(=O)(=O)c1ccc(OCC(=O)N2CCCC2)cc1,3.05%
12,CN(CC(=O)Nc1ccc(F)cc1)C(=O)c1cc([N+](=O)[O-])ccc1N1CCOCC1,-4.14%
13,Cc1ccc(/C=C2/CCc3c([nH]c4ccccc34)C2=O)cc1,16.4%
14,CCOC(=O)C1(CCC(C)C)CC(CSc2nc3ccccc3[nH]2)OC1=O (stereo not drawn),0.436%
15,Cc1cccc(NC(=O)/C=C/c2ccc([N+](=O)[O-])s2)c1,8.58%
16,CCOc1cccc(NC(=O)C2CC(=O)NC(=Nc3ccccc3)S2)c1 (stereo not drawn),9.88%
17,COc1ccc(N=C2NN=C(c3c(C)[nH]c4ccccc34)CS2)cc1.Cl,8.61%
18,Cc1nc2n(COCCO)cnn2c(=O)c1Br,8.55%
19,Cc1cc(C)nc(NC(=O)c2cnc3sccn3c2=O)n1,11.3%
20,O=C1CSC2N1CCNC21CCCCC1 (stereo not drawn),7.78%
21,CC(=O)NC(Cc1ccccc1)C(=O)N1CCN(C(=S)NCC(C)C)CC1 (stereo not drawn),4.53%
22,O=c1[nH]c(-c2ccccc2)c(-c2ccccc2)o1,14%
23,O=C(O)[C@@H]1CCCN1C(=O)COc1ccc2c3c(c(=O)oc2c1)CCC3,8.62%
24,COC(CN(C(=O)CCl)C(C(=O)NC1CCCCC1)c1ccccc1C)OC (stereo not drawn),8.82%
25,CN1CCN(c2ccc([N+](=O)[O-])c(N/N=C3\CN4CCC3CC4)c2)CC1,5.32%
26,Cc1cc2nc3n(c2cc1C)CCCN3,5.81%
27,C=CCn1c(=O)[nH]c2cc(C(=O)N3CCN(c4cc(C)ccc4C)CC3)ccc2c1=O,2.81%

row,SMILES,"hERG current change (%, negative = inhibition) at 1uM"
1,OCC1(CC2CCCCO2)CCN(Cc2cccc(O)c2)CC1 (stereo not drawn),6.68%
2,C=C[C@H]1[C@H](OC2OC(CO)C(O)C(O)C2O)OC=C(C(=O)OC)[C@H]1C[C@H]1CC(=O)C[C@H](CC(=O)CCc2ccc(O)cc2)O1 (stereo partly drawn),-3.71%
3,CC(=O)O/N=C(/c1nonc1N)N1CCN(c2ccc([N+](=O)[O-])cc2Cl)CC1,-2.9%
4,O=C(NCc1ccc(F)cc1)C1CCN(S(=O)(=O)c2ccc(Cl)cc2)CC1,17.9%
5,O=C(NCc1ccccc1F)C1CC(=O)N(c2ccc3c(c2)OCCO3)C1 (stereo not drawn),11.3%
6,Cc1c(NC(=O)c2cc(-c3ccc4c(c3)OCO4)on2)c(=O)n(-c2ccccc2)n1C,6.96%
7,Cc1occc1C(=O)Nc1cc(S(=O)(=O)N2CCOCC2)ccc1OC(C)C,8.52%
8,CN1CCN(C(=O)C2=C[C@H](c3csc4ccccc34)C[C@H](OCc3ccc(CO)cc3)O2)CC1,2.17%
9,Nc1nc(-c2ccc3ccccc3c2)c(C2(O)C(=O)Nc3c(Br)cc(F)cc32)s1 (stereo not drawn),5.28%
10,COC(=O)c1sccc1NC(=O)/C=C/c1c(Cl)cccc1Cl,14.3%
11,COc1ccccc1C(=O)N/C(=C/c1ccccc1)C(=O)NC(CCSC)C(=O)O (stereo not drawn),12%
12,N#Cc1nc(Cc2cccc3ccccc23)oc1NCc1ccco1,1.26%
13,CNS(=O)(=O)c1ccc(C(=O)NCC(=O)NCCC(c2ccccc2)c2ccccc2)cc1,-7.79%
14,O=c1[nH]c(=S)n(Cc2ccco2)c(O)c1C=NCc1cccs1,6.08%
15,c1ccc2c(-c3nnc4n3CCCCC4)c[nH]c2c1,7.36%
16,O=C(CN(C(=O)Cn1nnc(-c2ccc(F)cc2)n1)c1ccc(F)c(Cl)c1)NCC1CCCO1 (stereo not drawn),6.28%
17,COc1cc(NC(=O)CNc2ccc(Cl)c(S(=O)(=O)N3CCOCC3)c2)cc(OC)c1,11.6%
18,COc1cc(C(=O)O/N=C(\N)c2ccc([N+](=O)[O-])cc2)cc(OC)c1OC,-2.49%
19,Cc1c(C(=O)N2CCN(c3ccccn3)CC2)oc2c1C(=O)CC(C)(C)C2,6.35%
20,O=C(COC(=O)Cn1cnc2ccccc2c1=O)Nc1ccc2c(c1)OCO2,11.9%
21,COc1cc([N+](=O)[O-])cc(/C=N/NC(=O)Cn2cncn2)c1O,5.47%
22,Cn1c(=O)c2c([nH]c(=O)n2C)n(Cc2ccccc2)c1=O,13.1%
23,CCN(CC)S(=O)(=O)c1cccc(C(=O)NCC2CCCCC2)c1,4.08%
24,CCOc1ccc(C(=O)NCC(=O)Nc2ccncc2)cc1OCC,10.9%
25,O=C(N/N=C/c1ccccn1)c1sc2ccccc2c1Cl,11.2%
26,Cc1ccc(S(=O)(=O)N2CCN(C(=O)COc3ccc(NC(=O)c4ccco4)cc3)CC2)cc1,15.2%
27,CCn1c(Cn2nnc(-c3ccccc3)n2)nnc1SCC(=O)N1CCOCC1,-1.15%
